Data from PubChem BioAssay AID2094 (Broad Institute, 2009).
Hit rate of the full screen: of about 300,000 compounds, about 1,200 (0.4%) were called active. Inconclusive results, whose numbers are uncertain, are shown with a selection of clear calls. Cut-off read from the data, not from the text of the source: active = activity change below about -75% (passing the limit was not always enough); inconclusive = no clear call, values can overlap the other calls.

Experiment: Vibrio harveyi AI-2 quorum sensing modulators, primary screen, JMH597 strain, luminescence/OD600 ratio (AID 2094);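 note: luminescence divided by OD600 gain over 9 h not by final OD600 alone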
Conditions: Vibrio harveyi JMH597 AI-2 luminescence/OD600 ratio, 9 h; at 7.5 µM; stronger effect = lower value; 0 = neutral-control median; strain lacks LuxN and CqsS sensors

| Compound | activity change |
| --- | --- |
| CC(C)(C)OC(=O)NCCc1nnc(S(=O)(=O)Cc2ccc(Cl)cc2Cl)o1 | active: -88.8% |
| O=C(Nc1cc(Cl)ccc1O)C1CC(c2ccccc2Cl)=NO1 (stereo not drawn) | inconclusive: -73.4% |
| CCOC(=O)Cc1ccc(NS(=O)(=O)c2ccc(SC)cc2)cc1 | inconclusive: -72.4% |
| CC(=O)Nc1ccc(NC(=O)N(c2ccccc2)c2ccccc2)cc1 | inactive: 12.7% |
| CCOC(=O)c1c(NC(=O)CSc2nccc(=O)[nH]2)sc(C)c1C | inconclusive: -70.4% |
| CCCCc1ccc(NC(=O)CC(C)(C)C)cc1 | active: -75.8% |
| COc1ccc(N2CC(C(=O)N/N=C/c3cc([N+](=O)[O-])ccc3O)CC2=O)cc1 (stereo not drawn) | inconclusive: -78.4% |
| CCOc1cc(/C=N/OC(C)=O)ccc1OCc1ccccc1 | inactive: 8.3% |
| Cc1cccc(-c2noc(CNC(=O)c3ccoc3C)n2)c1 | inconclusive: -74% |
| Cc1ccc(C(=O)c2no[n+]([O-])c2C(=O)c2ccc(C)cc2)cc1 | inconclusive: -77.1% |
| Cc1ccc(-c2nnn(CC(=O)N(Cc3cccs3)C(C(=O)NC(C)(C)C)c3ccco3)n2)o1 (stereo not drawn) | inconclusive: -139% |
| O=C(CCC(=O)c1ccc(F)cc1)Nc1cccc(Br)c1 | inconclusive: -76.9% |
| CCCC1(c2ccccc2)NC(=O)N(CC(=O)Nc2cc(C)on2)C1=O (stereo not drawn) | inconclusive: -75.2% |
| COc1ccc(C(=O)NC(=S)NNC(=O)c2ccccc2C)cc1 | inconclusive: -150% |
| Oc1c(Cl)cc(Cl)cc1Sc1cc(Cl)cc(Cl)c1O | inconclusive: -52.7% |
| O=S(=O)(c1ccc(Oc2ccc(Cl)cc2)nc1)N1CCOCC1 | inconclusive: -74.7% |
| Cc1ccccc1C(=O)NCC(=O)OCCOc1ccc(C(C)C)c(C)c1 | inconclusive: -48.3% |
| O=[N+]([O-])c1c(Nc2ccccc2O)cc(Cl)c2nonc12 | inconclusive: -74.4% |
| Cc1cccc(NC(=S)N/N=C/c2ccc([N+](=O)[O-])s2)c1 | active: -212% |
| COc1ccc2c(C(=O)CN(C)C3CCCCC3)c[nH]c2c1 | inconclusive: -304% |
| Cn1cccc1-c1cc(C(=O)N/N=C/c2cc(Br)ccc2O)[nH]n1 | inconclusive: -54.5% |
| Cc1nnc(Sc2cc(NCCO)c([N+](=O)[O-])c3nonc23)s1 | inconclusive: -22.9% |
| Cc1ccccc1C(=O)OCc1nnc(-c2ccc(Cl)cc2)o1 | inconclusive: -72.9% |
| O=C(OCc1nc2ccccc2s1)c1cnccn1 | inconclusive: -173% |

| Compound | activity change |
| --- | --- |
| Cc1ccnc(NC(=O)CNC(=O)c2ccc3ccccc3c2)c1 | inconclusive: -73.7% |
| Cc1cc(C)n(C(=O)c2cccc([N+](=O)[O-])c2)n1 | inactive: 9.55% |
| Clc1ccc(-c2nnc(CCc3ccccc3)o2)c(Cl)c1 | active: -90.3% |
| Cc1c(NC(=O)NC(=O)c2ccc(F)cc2)c(=O)n(-c2ccccc2)n1C | inconclusive: -82.7% |
| CCc1ccc(CCC(=O)Nc2ccc(C(C)=O)cc2)o1 | active: -94% |
| Oc1c(C(c2ccccc2Cl)N2CCCC2)ccc2cccnc12 (stereo not drawn) | inconclusive: -82.6% |
| COc1ccc(C2(C)NC(=O)N(CC(=O)Nc3ccc(S(=O)(=O)N4CCCC4)cc3)C2=O)cc1 (stereo not drawn) | active: -90% |
| O=C(NCCc1ccccc1)C1CCN(S(=O)(=O)c2cccnc2)CC1 | inconclusive: -74.7% |
| COc1cccc(CCNC(=O)CC2C(=O)NCCN2Cc2ccc(C)o2)c1 (stereo not drawn) | inactive: -6.52% |
| O=C(O)c1ccc(NCc2cccc(Br)c2)cc1 | active: -90.7% |
| Cc1ccccc1C(=O)Nc1ccc(N2CCCCCC2)cc1 | active: -80.7% |
| CN(C(=O)c1cnccn1)c1nnc(-c2cnccn2)s1 | inactive: 11.9% |
| Cc1ccc(S(=O)(=O)Nc2nc(-c3ccc(F)cc3)cs2)cc1 | active: -91.9% |
| O=C(Nc1ccccn1)c1ccc([N+](=O)[O-])o1 | inconclusive: -16.1% |
| CCc1ccc(NSc2ccccc2[N+](=O)[O-])cc1 | inconclusive: -61% |
| Cc1cc(C)cc(OCC(=O)O/N=C(\N)c2ccccn2)c1 | inconclusive: -77% |
| CCN(CC(=O)Nc1ccc(OC)cc1)C(=O)CCS(=O)(=O)c1ccc(C)cc1 | inactive: 21.6% |
| CC1(c2ccccc2Cl)NC(=O)N(CC(=O)Nc2ccc(N3CCCCC3)cc2)C1=O (stereo not drawn) | inconclusive: -73.6% |
| Cc1ccc(-n2c(SCC(=O)Nc3ccc4cn[nH]c4c3)nnc2-c2ccco2)cc1 | inconclusive: -81.3% |
| COc1ccc(/C=N/Nc2ccc([N+](=O)[O-])cc2)cc1O | inconclusive: -73.4% |
| CCOC(=O)c1cnn(-c2ncnc3sc(CC)cc23)c1N | inconclusive: -69.9% |
| Cc1ccccc1NCCC(=O)Nc1ccc(Cl)cc1 | active: -83.7% |
| CCn1ncc(Br)c1C(=O)Nc1sc2c(c1C(=O)OC)CCC2 | inactive: -0.253% |
| O=Nc1c(-c2cccc([N+](=O)[O-])c2)nc2ncccn12 | inconclusive: -41.9% |

| Compound | activity change |
| --- | --- |
| N#Cc1ccc2[nH]c(CO)c(-c3ccccc3)c2c1 | inactive: 15.4% |
| CC1(C)Cc2ccccc2C2=C(C(=O)N3CCCCCC3)C(=O)C(=O)N21 | inactive: 10.2% |
| O=C(N/N=C/c1ccccc1O)c1cccc2ccccc12 | inconclusive: -68.5% |
| CCOC(=O)Cn1cnc(-c2ccc([N+](=O)[O-])cc2)c1 | inactive: 15.2% |
| O=C(O)c1cccc(NC2=C(Cl)C(=O)c3ccccc3C2=O)c1 | inconclusive: -81% |
| CC(C)c1ccc(NC(=O)CN2C(=O)NC3(CCCC3)C2=O)cc1 | inconclusive: -75.3% |
| COc1cc(/C=N/NC(=O)C(=O)NCC2CCCO2)ccc1O (stereo not drawn) | inactive: 26.7% |
| CCN(CC)S(=O)(=O)c1ccc(Oc2cccc(C(C)=O)c2)nc1 | active: -85.4% |
| CC(C)(C)c1ccc(C(=O)NNC(=S)NC(=O)c2cccnc2)cc1 | inconclusive: -56.2% |
| Cc1[nH]n(-c2ccccc2)c(=O)c1/C=N/NC(=O)c1ccccc1F | inconclusive: -31.7% |
| COc1ccc(CC(=O)O/N=C(\N)c2ccccn2)cc1 | inconclusive: -75.7% |
| O=C(Nc1nnc(-c2cccnc2)o1)c1cccc(Cl)c1 | inconclusive: -22.6% |
| N#Cc1ccc(C(=O)Nc2nnc(-c3cccs3)o2)cc1 | inconclusive: -11.1% |
| Cc1nc(-c2cccnc2)sc1C(=O)Nc1cccc(C(F)(F)F)c1 | active: -85.6% |
| Clc1ccccc1-c1csc(Nc2cccnc2)n1 | inactive: 15.1% |
| CC(Nc1ccc(Br)cn1)c1cc(Cl)ccc1O (stereo not drawn) | active: -86.4% |
| Cn1cc(C(=O)NS(=O)(=O)Nc2ccc(Br)cn2)c2ccccc21 | inactive: 45.4% |
| CCOC(=O)c1cccc(NC(=O)Cn2nc(C)n3cccc3c2=O)c1 | active: -97.3% |
| Cc1occc1C(=O)N/N=C/c1ccc(OCc2ccccc2)cc1 | inconclusive: -144% |
| Cc1ccc2nc(/C(C#N)=C\c3ccc([N+](=O)[O-])o3)[nH]c2c1 | inconclusive: -86.5% |
| CC(Cc1cccnc1)NC(=O)c1cc(COc2c(F)cccc2F)on1 (stereo not drawn) | inconclusive: -76.5% |
| O=C(Nc1ccc(Cl)cc1F)C1CCN(S(=O)(=O)c2cccnc2)CC1 | inconclusive: -74.1% |
| Cc1ccc(C(=O)NC(=S)NNC(=O)COc2ccc([N+](=O)[O-])cc2)cc1 | inconclusive: -20.4% |
| O=C(CSC1=N/C(=C/c2ccco2)C(=O)N1c1ccc(OC(F)F)cc1)NC1CCS(=O)(=O)C1 (stereo not drawn) | inconclusive: -60.3% |

| Compound | activity change |
| --- | --- |
| Cc1nn(-c2ccccc2)c2c1C(O)CC(C)(C)C2 (stereo not drawn) | inactive: 29.3% |
| CCOC(=O)C(=NC1CCCCC1)NNc1cccc(C(F)(F)F)c1 | inactive: 12.9% |
| O=C1CCCC2=C1C(c1ccncc1)n1c(nc3ccccc31)N2 (stereo not drawn) | inactive: 18.9% |
| CN(CC(=O)Nc1ccccc1Cl)C(=O)COC(=O)c1ccc(Cl)cc1[N+](=O)[O-] | active: -93.7% |
| CCOC(=O)N1CCN(C(=O)CN(CC)S(=O)(=O)c2cc(C)ccc2OC)CC1 | inconclusive: -533% |
| Cc1ccc(-c2nc(CNC(=O)c3cc(C)on3)cs2)cc1 | inconclusive: -68.5% |
| NC(=S)N/N=C/c1ccc(-c2ccccc2)o1 | inconclusive: -81.3% |
| O=C(NCc1ccccc1)c1ccc(/C=N/O)nc1 | inconclusive: -74.3% |
| O=C1c2cccc3c([N+](=O)[O-])ccc(c23)C(=O)N1O | inconclusive: -94.2% |
| Cc1cccc(NC(=O)CCc2ccc(C)o2)c1 | inconclusive: -66.6% |
| Cc1cc(=O)oc(C)c1C(=O)NCc1cccnc1 | inconclusive: -152% |
| Cc1ccccc1OCC(=O)Nc1ccc(S(=O)(=O)N2CCCC2)cc1 | active: -78.8% |
| COc1cc(NS(=O)(=O)c2ccc(N)cc2)nc(OC)n1 | inconclusive: -44.8% |
| Cc1cn([C@H]2C[C@H](N=[N+]=[N-])[C@@H](CO)O2)c(=O)[nH]c1=O | inconclusive: -43.3% |
| CCCCOC(=O)Nc1nnc(C(C)C)s1 | inactive: -1.17% |
| Cc1ccc(NC(=O)c2ccc([N+](=O)[O-])o2)c(C)c1 | inconclusive: -94.6% |
| COc1ccc(N2CCC(CNC(=O)Nc3ccc(Cl)cc3)C2)cc1 (stereo not drawn) | inactive: 3.63% |
| Cc1ccc(CSc2nc3ccncc3[nH]2)cc1 | active: -76.9% |
| O=[N+]([O-])c1ccc(NC(=S)NCCc2ccc(F)cc2)cc1 | inconclusive: -65% |
| ONC(=Nc1ccccc1Cl)c1ccccc1Cl | inconclusive: -71.7% |
| O=C(NCc1ccc(Cl)cc1)C(=O)c1c[nH]c2ccccc12 | active: -88.9% |
